Measurements from PubChem BioAssay AID504832 (National Center for Advancing Translational Sciences (NCATS), 2011).
Screen size: about 310,000 compounds; about 18,000 (5.8%) were called active. The inconclusive results got no clear call from the source; some entries with a clear call stand among them for comparison. Calls follow the shape of the dose curve; as a rule, active = well fitted inhibition curve with a large enough effect; inconclusive = small, poorly fitted or top-dose-only effect, or another doubt; inactive = no such curve, though single readings can be large or run the other way. Potencies of inconclusive entries are left out as doubtful fits.

assay: Primary qHTS for delayed death inhibitors of the malarial parasite plastid, 48 hour incubation; details: P. falciparum luciferase growth in erythrocytes; series mostly up to 28.7 µM; activity change, negative = inhibition: at the top concentration
In short: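 Luciferase-expressing parasites in RBCs, 2% Hct / 0.1% parasitemia final; RPMI 1640 + 0.5% Albumax; 37 C, 5% CO2, one generation; luminescence read-out, lower signal = inhibition.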
% is scaled to controls: 0 for no effect and ±100 for the full control effect; potency is read from the fitted curve at half-maximal effect; tags tell the direction and shape of the fitted curve.

Compound	Potency	activity change, negative = inhibition
CC1(C)[C@H]2CC=C(CN3CCC(N4CCC(C(=O)N5CCCC5)CC4)CC3)[C@@H]1C2	inconclusive [inhibitor, single point]	
CC(OC(=O)C1CC1)C(=O)Nc1ccc([N+](=O)[O-])cc1Cl (configuration not stated)	inconclusive [inhibitor, single point]	
COC(=O)c1ccc(N2CCN(C)CC2)c(NC(=O)COc2ccc(OC)cc2)c1	inconclusive [inhibitor, partial curve, poor fit]	
O=C(Nc1ccc(NC(=O)c2ccco2)c(Cl)c1)c1cccc([N+](=O)[O-])c1	active: 10.4 µM	
O=C(COC(=O)c1c2c(nc3ccccc13)/C(=C/c1cccc([N+](=O)[O-])c1)CCC2)NC1CCS(=O)(=O)C1 (configuration not stated)	inconclusive [inhibitor, partial curve]	
COc1ccc(C=O)cc1OS(=O)(=O)c1ccc(NC(C)=O)cc1	inconclusive [inhibitor, single point]	
O=C(Nc1cccc(-c2nc3ncccc3o2)c1)c1sc2cc(Cl)ccc2c1Cl		inactive: 45.4%
CCc1ccc2[nH]c(=O)c(CN(CCN(CC)CC)C(=S)NCc3ccco3)cc2c1	active: 9.28 µM	
O=C(c1ccc(N2CCCC2=O)cc1)N1CCN(c2ccccc2O)CC1	inconclusive [inhibitor, single point]	
CC(C)(C)C(=O)Nc1ccc(NC(=O)c2ccco2)nc1		inactive: -87.6%
CN=c1scc(-c2ccco2)n1/N=C/c1ccc(O)c(O)c1		inactive: -35.1%
Cc1ccc(C(=O)NCC(=O)N2CCC3(CC2)NCCc2[nH]cnc23)cc1C		inactive: -4.08%
CCN(CC)c1ccc(N2C(=O)/C(=C/c3cccnc3)SC2=S)cc1	inconclusive [inhibitor, single point]	
O=C(COC(=O)CNS(=O)(=O)c1c(F)cccc1F)NC(=O)NC1CCCCC1		inactive: 0%
CC(C)(CNC(=O)c1ccc(NS(=O)(=O)c2ccc(F)c(F)c2)cc1)N1CCOCC1		inactive: -12.2%
CCn1c(=O)c2cc(C(=O)Nc3cccc(C(C)=O)c3)sc2c2ccccc21	inconclusive [inhibitor, partial curve, poor fit]	
COc1ccc(C2=CC(=O)C[C@H](c3ccc(F)cc3)C2)cc1OC	inconclusive [inhibitor, single point]	
COc1cccc(NS(=O)(=O)c2ccc3[nH]cc(C(=O)NCCN4CCOCC4)c(=O)c3c2)c1	active: 13.1 µM	
O=S(Cc1ccc(Br)cc1)Cc1nnc(SCc2c(Cl)cccc2Cl)n1-c1ccccc1 (configuration not stated)	inconclusive [inhibitor, single point]	
CCc1nnc(NC(=O)CCNC(=O)c2ccco2)s1	inconclusive [inhibitor, single point]	
CCOC(=O)c1c(-c2cccc([N+](=O)[O-])c2)cn2ccccc12	inconclusive [inhibitor, partial curve, poor fit]	
COc1ccc(N2C(=O)CC(NNc3ncc(Cl)cc3Cl)C2=O)cc1 (configuration not stated)		inactive: -5.41%
Cc1ccc(-c2nc3ccc(C(=O)O)cc3nc2-c2ccc(C)cc2)cc1		inactive: -4.78%

Compound	Potency	activity change, negative = inhibition
CCSc1nc2ccccc2n1CCOc1ccccc1	inconclusive [inhibitor, single point]	
COc1ccc2c(c1)O[C@@H](c1cccc(C(F)(F)F)c1)[C@H](OC(=O)Nc1ccc(OC(F)F)cc1)C2=O	inconclusive [inhibitor, single point]	
C=CCSc1nc(C)cc(/C=C\c2ccccc2)c1C#N	inconclusive [inhibitor, full curve, poor fit]	
COC(=O)CN1C(=O)[C@H]2[C@@H](c3ccc(C)o3)N3C(=O)CN(Cc4ccccc4)C(=O)[C@@]3(Cc3ccccc3)[C@H]2C1=O	inconclusive [inhibitor, single point]	
O=c1c2ccccc2nc(-c2ccco2)n1-c1ccccc1	inconclusive [inhibitor, single point]	
COc1ccc(C2(C(=O)NCCc3ccccc3)CCCC2)cc1	inconclusive [inhibitor, single point]	
COc1ccc(CCNC(=O)COc2ccc(S(=O)(=O)N3CCCC3)cc2)cc1	inconclusive [inhibitor, partial curve]	
Cc1coc2c(C)c3oc(=O)c(CCC(=O)NCc4ccccn4)c(C)c3cc12	inconclusive [inhibitor, partial curve, poor fit]	
COc1cc(CNC(C)(C)CO)ccc1OCC(=O)Nc1ccc(Br)cc1		inactive: 9.37%
CCC(SC1=N/C(=C/c2ccccc2OC)C(=O)N1c1ccccc1)C(=O)Nc1cc(C)on1 (configuration not stated)	inconclusive [inhibitor, single point]	
O=C(c1ccco1)N1CCCC(c2nc3c(nnn3Cc3ccccc3)c(=O)[nH]2)C1 (configuration not stated)	inconclusive [inhibitor, full curve]	
CC(C)N1C/C(=C/c2cccnc2)C(=O)/C(=C/c2cccnc2)C1	active: 13.1 µM	
CC(=O)c1cc(-c2ccccc2)n(CC(=O)Nc2cccc(C)c2)c1C	inconclusive [inhibitor, single point]	
COc1ccc(-c2nc3cnccn3c2Nc2ccc(C)cc2)cc1	inconclusive [inhibitor, partial curve]	
O=C(Nc1cc([N+](=O)[O-])ccc1N1CCCC1)c1cccs1	inconclusive [inhibitor, single point]	
O=C1CC(c2cccnc2)=NN1c1ccc(Cl)cc1Cl	inconclusive [inhibitor, partial curve]	
Cc1ccc(-c2nnc(NCc3nc4ccccc4[nH]3)c3ccccc23)cc1S(=O)(=O)N(C)C	active: 13.1 µM	
Oc1cccc(/C=N/N=C/c2cccc(O)c2O)c1O	active: 13.1 µM	
Cc1ccccc1NC(=O)c1cc([N+](=O)[O-])ccc1NCCN1C(=O)CCC1=O		inactive: -20%
COc1cccc(OCc2cc(C(=O)N3CCN(C4CCCC4)CC3)no2)c1		inactive: 16.2%
CN(CC(=O)Nc1cccc(S(=O)(=O)NC2=NCCCCC2)c1)Cc1ccc(C(C)(C)C)cc1	inconclusive [inhibitor, single point]	
CC(OC(=O)Cc1ccc(F)cc1)C(=O)N1CCc2ccccc21 (configuration not stated)		inactive: -0.0345%
O=C(CNC(=O)c1ccccc1Br)N/N=C/c1cc(Br)ccc1O	inconclusive [inhibitor, full curve, poor fit]	

Compound	Potency	activity change, negative = inhibition
Cc1cccc([C@@H]2[C@@H]3C(=O)N(Cc4ccccc4)C(=O)[C@@H]3[C@]3(Cc4ccc(Cl)cc4)C(=O)N(c4cccc(Br)c4)C(=O)N23)c1	inconclusive [inhibitor, full curve, poor fit]	
CSc1nn2c(C)c(C)c(C)nc2c1C#N	inconclusive [inhibitor, single point]	
CCc1cc(C(=O)c2ccc(Br)cc2)c(NC(=O)CN(CC)CC)s1	active: 5.86 µM	
CC(C)COP(=O)(c1ccc(N(C)C)cc1)C(Nc1ccccc1)c1cccnc1 (configuration not stated)	inconclusive [inhibitor, single point]	
CCC(CC)(CC(=O)Nc1cccc(/C=C/c2nc(C3CCC3)cs2)c1)C(=O)O	inconclusive [inhibitor, partial curve]	
COC(=O)C(NC(=O)c1ccc(F)cc1)(Nc1nc(C)cs1)C(F)(F)F (configuration not stated)	inconclusive [inhibitor, partial curve]	
COc1ccc([N+](=O)[O-])cc1NC(=O)C(C)N(C)Cc1ccc(Br)cc1 (configuration not stated)	inconclusive [inhibitor, partial curve, poor fit]	
FC(F)(F)COc1nc(N2CCOCC2)nc(N(c2ccccc2)c2ccccc2)n1	active: 3.29 µM	
CC(C)C(C)(C#N)NC(=O)CSc1nnc(C(F)(F)F)n1C (configuration not stated)		inactive: 76.4%
COc1ccc2ccccc2c1/C=N/Nc1cccc(C(=O)O)c1		inactive: 64.8%
O=C(NCCC1=CCCCC1)c1ccc(Cl)c(S(=O)(=O)N2CCOCC2)c1	active: 5.86 µM	
O=C1CN(C(=O)c2cc(F)cc(F)c2)c2ccccc2N1		inactive: 7.56%
CC(C)(CO)NCc1cccs1		inactive: 0%
CCN1CSC(=S)N(Cc2ccc(OC)cc2)C1	inconclusive [inhibitor, partial curve, poor fit]	
Cc1ccc(S(=O)(=O)Nc2ccc3nc(C)sc3c2)cc1	inconclusive [inhibitor, partial curve, poor fit]	
COc1ccc2c(c1OC)C(=O)N1N=C(c3ccc(O)cc3)CC21 (configuration not stated)	active: 1.31 µM	
COc1ccc(-n2c(/C=C/c3cccc(F)c3)nc3ccccc3c2=O)c(OC)c1	inconclusive [inhibitor, single point]	
COc1cc(OC)c(OC)cc1/C=C/C(=O)c1ccc(NS(=O)(=O)c2ccc(C)cc2)cc1	active: 9.28 µM	
O=C1CCCN1CCCN=c1c([N+](=O)[O-])nn(-c2ccc(Cl)cc2)n1O	inconclusive [inhibitor, single point]	
COC(=O)[C@@]12CCCN1[C@H](c1ccc(-c3ccc(Cl)c(Cl)c3)cc1)[C@H]1C(=O)N(C)C(=O)[C@H]12	inconclusive [inhibitor, single point]	
CN(Cc1ccccc1Br)C(=O)CSc1nnnn1C1CC1	inconclusive [inhibitor, partial curve]	
